Experimental data as given in PubChem BioAssay AID1671189 (National Center for Advancing Translational Sciences (NCATS), 2021).
Hit rate of the full screen: of about 1,100 compounds, about 70 (6%) were called active. This list was built around the results that the source calls inconclusive (neither active nor inactive); the mix of calls is not that of the screen. Calls follow the shape of the dose curve; as a rule, active = well fitted curve in the direction sought with a large enough effect; inconclusive = small, poorly fitted or top-dose-only effect, or another doubt; inactive = no such curve, though single readings can be large or run the other way. Where the call is inconclusive, the potency comes from a doubtful curve fit.

Biological target: Polyunsaturated fatty acid lipoxygenase ALOX12 (Homo sapiens) (UniProt P18054)
Test: Confirmatory qHTS assay for inhibitors of human arachidonate 12S-lipoxygenase (ALOX12): Round 2
Settings: purified human 12-LOX, xylenol orange absorbance; series mostly up to 64.5 µM
From the text: Assay Provider: Theodore R. Holman Ph.D. University of California, Santa Cruz, California Human lipoxygenase 12hLO is a member of the closely related lipoxygenase family of enzymes which catalyze the site-specific oxidation of arachidonic acid to various hormone precursor molecules and as such is a candidate for drug development in a variety of disease areas, such as cancer and inflammation. Inhibition of 12hLO activity was screened by utilizing arachidonic acid as a substrate. The extent of hydroperoxide product formation was measured by a secondary chromogenic reaction in which xylenol orange (XO, Sigma-Aldrich, cat. number 39,818-7) reacts with the ferric ions produced from the reaction between the hydroperoxide and ferrous ions. The Fe (III)-XO complex is characterized with red-shifted absorbance at 560 nm. A purified preparation of human 12hLO was supplied by Dr. Holman laboratory, University of California, Santa Cruz.
PROTOCOL TABLE SEQUENCE No. (e.g., 1, 2, 3, etc.); […] (e.g., Cells, Incubation, Reagent, etc.); VALUE; DESCRIPTION 1; Enzyme; 3 uL; 150 nM 12hLO enzyme solution dispensed in 1536-well Greiner black, clear bottom plates. 2; Compound; 23 nL; compounds and controls were added. 3; Incubate; 15 min; room temperature. 4; Substrate; 1 uL; 40 uM arachidonic acid (final concentration). 5; Incubate; 30 min; room temperature. 6; Reagent; 4 uL; Fe-XO solution was added to each well. 7; Incubation; 30 min; room temperature 8; Detector; absorbance; Read 1 at 405 nm absorbance using ViewLux (PerkinElmer) CCD imager. 9; Detector; absorbance; Read 2 at 573 nm absorbance using ViewLux (PerkinElmer) CCD imager. NOTES (numbers refer to sequence above) 1; 150 nM 12hLO (final concentration) in buffer solution (25 mM Hepes, 0.01% Triton X-100, pH 7.0) was dispensed in columns 1, 2, 5-48. Column 1 is neutral (100% activity). Buffer only was dispensed in columns 3 and 4 as no enzyme negative controls. The plates were covered with metal lids with gas-exchange holes. 2; Compounds were pin transferred via a Kalypsys Pin Tool (Wako USA) in column 5 - 48. Control compound was transferred in column 2, titration of nordihydroguaiaretic acid (NDGA, Sigma-Aldrich, N5023) with top concentration of 20 mM in DMSO then 1:3 dilution in duplicate. Dilution factor of 23 nL into 4 uL final assay volume. 3; Covered assay plates were incubated for 15 min at room temperature. 4; Substrate was added to start the reaction; 40 uM arachidonic acid (Sigma-Aldrich, St. Louis, MO) was dispensed throughout the plate. 6; Chromogenic detection reagent solution (divalent iron/xylenol orange, Fe-XO) was added to each well: 200 uM xylenol orange, 300 uM ferrous ammonium sulfate prepared freshly in 50 mM sulfuric acid. 8, 9; Two absorbance readouts were obtained at 405 nm and at 573 nm using a ViewLux high-throughput CCD plate imager (PerkinElmer). The 573 to 405 (Read 2 / Read 1) absorbance ratio was used to compute reaction progress.
Potency is read from the fitted curve at half-maximal effect.

Sequence of UniProt P18054 (P18054 whole entry, looked up): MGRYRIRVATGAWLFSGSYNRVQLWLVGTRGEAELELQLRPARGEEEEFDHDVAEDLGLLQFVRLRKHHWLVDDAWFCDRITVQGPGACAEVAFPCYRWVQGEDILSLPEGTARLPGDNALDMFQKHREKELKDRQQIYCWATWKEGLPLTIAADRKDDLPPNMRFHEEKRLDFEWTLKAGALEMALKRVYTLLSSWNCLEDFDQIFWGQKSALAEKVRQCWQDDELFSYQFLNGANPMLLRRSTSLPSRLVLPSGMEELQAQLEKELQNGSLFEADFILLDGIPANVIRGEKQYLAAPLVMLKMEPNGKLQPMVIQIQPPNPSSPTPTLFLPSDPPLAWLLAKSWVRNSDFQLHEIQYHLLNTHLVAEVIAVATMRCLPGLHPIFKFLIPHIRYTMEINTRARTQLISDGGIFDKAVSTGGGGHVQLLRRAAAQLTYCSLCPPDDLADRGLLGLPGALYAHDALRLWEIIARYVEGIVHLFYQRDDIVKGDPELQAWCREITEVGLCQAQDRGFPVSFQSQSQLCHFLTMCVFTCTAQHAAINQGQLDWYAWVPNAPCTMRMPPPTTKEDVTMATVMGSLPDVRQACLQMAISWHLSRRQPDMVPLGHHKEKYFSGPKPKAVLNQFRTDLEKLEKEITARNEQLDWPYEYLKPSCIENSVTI

Row | Structure (SMILES) | Potency
1 | O=C(O)C1CN(Cc2ncc[nH]2)CCN(C(=O)Cc2cccs2)C1 (configuration not stated) | inactive
2 | COc1ccccc1NC(=O)Nc1ccc2n(c1=O)C[C@H]1C[C@@H]2CN(C2CCOCC2)C1 | active: 14.1 µM
3 | FC(F)(F)CN1C2CCC1CN(c1cncc(Br)c1)C2 | inconclusive: 62.2 µM [inhibitor, single point]
4 | CCN1CCCCC12Cc1ccccc1CN(C(=O)Cc1ccc(OC)cc1)C2 (configuration not stated) | inconclusive: 3.93 µM [inhibitor, full curve]
5 | COc1cc2c(cc1OCc1ccccc1)N(C(=O)c1c[nH]c3ccccc13)CC21CCN(C)CC1 | inconclusive: 6.31 µM [inhibitor, full curve]
6 | C#C[C@H]1CN2CC[C@H]1C[C@@H]2COC(=O)NCCC | active: 17.8 µM
7 | N#Cc1cccc(NC(=O)Nc2ccc3n(c2=O)C[C@H]2C[C@@H]3CN(C3CCOCC3)C2)c1 | inconclusive: 20 µM [inhibitor, partial curve]
8 | O=c1ccc(-c2ccc(Cl)cc2)c2n1C[C@H]1C[C@@H]2CN(S(=O)(=O)c2cccs2)C1 | inconclusive: 31.6 µM [inhibitor, partial curve, poor fit]
9 | CSc1ccc(-c2ccc(=O)n3c2[C@@H]2C[C@@H](CN(S(=O)(=O)c4cccs4)C2)C3)cc1 | active: 15.8 µM
10 | CS(=O)(=O)N1C[C@@H]2C[C@H](C1)c1ccc(NC(=O)c3ccncc3)c(=O)n1C2 | inconclusive: 28.2 µM [inhibitor, full curve]
11 | CCOc1ccc(CN(CCc2ccc3c(c2)OCO3)Cc2ccc(C)cc2)cc1 | inactive
12 | CSc1ccc(CN2CCN(C(=O)COc3cccc(C)c3)CC2)cc1 | inconclusive: 62.1 µM [inhibitor, partial curve, poor fit]
13 | CCCS(=O)(=O)N1C[C@@H]2C[C@H](C1)c1c(-c3ccc(Cl)cc3)ccc(=O)n1C2 | inactive
14 | CCN1CCCCC12Cc1ccccc1CN(C(=O)Cc1ccccc1)C2 (configuration not stated) | inconclusive: 5.55 µM [inhibitor, full curve]
15 | N[C@@]1(C(=O)O)CC[C@H](C(=O)O)C1 | inactive
16 | CSc1ccc(-c2ccc(=O)n3c2[C@@H]2C[C@@H](CN(S(C)(=O)=O)C2)C3)cc1 | inactive
17 | CSc1ccc(CN2CCN(C(=O)COc3ccc(C)cc3)CC2)cc1 | inactive
